The whole screen tested about 350,000 compounds, of which about 9,900 (2.8%) were called active. The inconclusive results got no clear call from the source; some entries with a clear call stand among them for comparison. Calls follow the shape of the dose curve; as a rule, active = well fitted activation curve with a large enough effect; inconclusive = small, poorly fitted or top-dose-only effect; inactive = no such curve, though single readings can be large or run the other way. Potencies of inconclusive entries are left out as doubtful fits.
Test: A quantitative high throughput screen for small molecules that induce DNA re-replication in MCF 10a normal breast cells. Also: nearly all actives have a fitted effect of over 50% in size. As to activity, positive = re-replication: % of control where 0% means no effect.
Details: MCF 10A DNA re-replication, Hoechst nuclear intensity, 48 h; activity, positive = re-replication: at 46.1 µM (top of the series)
Potency is read from the fitted curve at half-maximal effect; tags tell the direction and shape of the fitted curve.

Question: Which Potency does the source give for Cc1cnc(NC(=O)CSc2ncc(-c3ccccc3)n2Cc2ccco2)s1 here?
Answer: inconclusive [activator, single point]

Question: For Cn1c(O)c(/C=N/NC(=O)c2cc3ccccc3cc2O)c2ccccc21, which Potency is on record?
Answer: active: 20.6 µM

Question: Which Potency does the source give for CCCCN(C(=O)Cc1cccs1)c1nnc(-c2cccnc2)s1 here?
Answer: inconclusive [activator, partial curve, poor fit]

Question: For COc1ccc(NC(=O)c2ccc(Cc3ccc(C)cc3)o2)cc1, which Potency is on record?
Answer: inconclusive [activator, single point]

Question: For COc1ccc(C2Nc3ccccc3C(=O)N2Cc2ccco2)cc1COc1ccc(NC(C)=O)cc1 (stereo unspecified), which Potency is on record?
Answer: inconclusive [activator, partial curve, poor fit]

Question: For Cc1cccc(C)c1NC(=O)CCCSc1nnc(-c2ccc(Cl)cc2)n1-c1ccccc1, which Potency is on record?
Answer: inconclusive [activator, partial curve, poor fit]

Question: Which Potency does the source give for CC(C)(C)OC(=O)N1CCC[C@H]1C(=O)Nc1ccc(Br)cc1 here?
Answer: inactive

Question: Which Potency does the source give for CCN(CC)CCNC(=O)c1cc2c(-c3cccc(OC)c3)nn(C)c2s1 here?
Answer: inconclusive [activator, single point]

Question: With O=C(C1=NNCC1c1ccccc1)C1OC1c1ccccc1 (stereo unspecified) as the compound, how does the Potency read?
Answer: inconclusive [activator, full curve, poor fit]

Question: For CCOC(=O)NC(=O)C(/C=N/c1sccc1C(=O)OC)=C(\C)O, which activity, positive = re-replication is on record?
Answer: inconclusive: 60.7% [activator]

Question: With CC(=O)C1C(c2ccc([N+](=O)[O-])cc2)c2c(noc2C)CC1(C)O (stereo unspecified) as the compound, how does the Potency read?
Answer: inactive

Question: For CN(C)/C=C/C(=O)c1cccc(Cl)c1, which Potency is on record?
Answer: active: 5.8 µM

Question: With CCOc1ccc(-c2cc(C(=O)N3CCN(c4ccccn4)CC3)c3ccccc3n2)cc1 as the compound, how does the Potency read?
Answer: inconclusive [activator, single point]

Question: With COc1cc(/C=C/C(=O)O)ccc1OCc1ccc([N+](=O)[O-])cc1 as the compound, how does the Potency read?
Answer: inconclusive [activator, full curve, poor fit]

Question: Which Potency does the source give for CCOC(=O)C1=C(SCC)c2cc3c(n2C1=O)CCCC3 here?
Answer: inconclusive [activator, single point]

Question: With COC(=O)CN1C(=O)N/C(=C/c2cc(OC)c(OC)cc2C)C1=O as the compound, how does the Potency read?
Answer: inconclusive [activator, single point]

Question: Which Potency does the source give for COc1ccc(-c2sc3ccc(OC)cc3c2C#Cc2cncn2C)cc1 here?
Answer: inconclusive [activator, single point]

Question: With CCOC(=O)COc1ccc2c3c(c(=O)oc2c1C)CCC3 as the compound, how does the Potency read?
Answer: inconclusive [activator, single point]

Question: Which Potency does the source give for c1cn2c(NC3CCCCC3)c(-c3ccc(SC4CCCCC4)cc3)nc2cn1 here?
Answer: inconclusive [activator, full curve, poor fit]

Question: Which Potency does the source give for O=C(/C=C/Nc1ccccc1)c1ccccc1 here?
Answer: inconclusive [activator, partial curve, poor fit]

Question: With O=C(COC(=O)CNC(=O)C1CCCCC1)Nc1ccc(F)c([N+](=O)[O-])c1 as the compound, how does the Potency read?
Answer: inconclusive [activator, single point]

Question: With CC(C)(C)C(=O)NC(=S)NNC(=O)c1ccc(Cl)cc1Cl as the compound, how does the Potency read?
Answer: inactive

Question: For COc1ccc(-c2n[nH]c(C)c2-c2cnn(-c3ccccc3)c2)c(O)c1C, which Potency is on record?
Answer: inconclusive [activator, single point]

Question: Which Potency does the source give for COc1ccccc1C(C)Nc1nc(-c2cccnc2)nc2ccccc12 (stereo unspecified) here?
Answer: inconclusive [activator, partial curve, poor fit]

Question: Which Potency does the source give for O=C(COC(=O)COc1cccc(C(F)(F)F)c1)NC1CCCC1 here?
Answer: inconclusive [activator, partial curve, poor fit]

Question: With Cn1cccc1/C=N/n1c(-c2ccc(Cl)cc2)n[nH]c1=S as the compound, how does the Potency read?
Answer: inconclusive [activator, partial curve, poor fit]

Question: Which Potency does the source give for CCCOc1ccc(/C=C2/C(=O)ON=C2C)cc1Cl here?
Answer: inconclusive [activator, single point]

Question: Which Potency does the source give for COCCN(CC(=O)Nc1ccc(F)cc1)S(=O)(=O)c1ccc(S(=O)(=O)N2CCCC2)cc1 here?
Answer: inconclusive [activator, single point]

Question: For CCOc1cc(C(=O)N/N=C/c2ccsc2)cc(OCC)c1OCC, which Potency is on record?
Answer: inconclusive [activator, single point]

Question: For Oc1ccc(NCc2ccccc2OCc2ccccc2)cc1, which Potency is on record?
Answer: active: 23.1 µM

Question: With Cc1ccc(Nc2cc(C)nc(NCc3ccccc3)n2)cc1 as the compound, how does the Potency read?
Answer: active: 18.4 µM

Question: With CCn1cc(C(=O)OCC(=O)Nc2cccc(S(=O)(=O)N3CCOCC3)c2)c(=O)c2ccc(C)nc21 as the compound, how does the Potency read?
Answer: inactive

Question: For O=C1CCCc2oc3c(c21)CCCC3, which Potency is on record?
Answer: inconclusive [activator, full curve, poor fit]

Question: Which Potency does the source give for Cc1nn(-c2ccccc2)c2sc(C(=O)c3c(N)n(C)c(=O)n(C)c3=O)cc12 here?
Answer: inconclusive [activator, single point]

Question: With COc1ccc(C(=O)N2c3ccccc3C=CC2C#N)cc1 (stereo unspecified) as the compound, how does the Potency read?
Answer: inconclusive [activator, full curve, poor fit]

Question: For CC(C)(C)c1cc(Br)c(O)c(N=Nc2ccc(S(=O)(=O)N3CCOCC3)cc2)c1, which Potency is on record?
Answer: inactive

Question: For Cc1cc(C)c2cc(C)c(SCC(=O)NCc3ccco3)nc2c1, which Potency is on record?
Answer: inconclusive [activator, full curve, poor fit]

Question: With O=C(Nc1ccc2oc(-c3ccccc3)nc2c1)c1cc(-n2cnnc2)ccc1Cl as the compound, how does the Potency read?
Answer: inconclusive [activator, single point]

Question: Which Potency does the source give for CC(=O)Nc1ccc(/C(C)=N/Nc2nc(Nc3cccc4ccccc34)nc(N3CCOCC3)n2)cc1 here?
Answer: inconclusive [activator, single point]

Question: For CCOc1ccccc1/C=C(\C#N)C1=CCCC1, which Potency is on record?
Answer: inactive

Question: With Cc1c(Cl)cccc1NC(=O)COC(=O)c1c2c(nc3ccccc13)CCN(Cc1ccccc1)C2 as the compound, how does the Potency read?
Answer: inconclusive [activator, partial curve, poor fit]

Question: For Oc1ccccc1-c1nc(NCC2CCCO2)c2ccccc2n1 (stereo unspecified), which Potency is on record?
Answer: inconclusive [activator, partial curve, poor fit]

Question: With Cc1c([N+](=O)[O-])cnc(Sc2ccccc2)c1[N+](=O)[O-] as the compound, how does the Potency read?
Answer: inconclusive [activator, single point]

Question: With COc1ccccc1N(CC(=O)NC1CCCC1)S(=O)(=O)c1ccc(C)cc1 as the compound, how does the Potency read?
Answer: inconclusive [activator, partial curve, poor fit]

Question: With O=C(/C(=C(\O)c1ccccc1)c1nc2ccccc2[nH]1)c1ccccc1 as the compound, how does the Potency read?
Answer: inconclusive [activator, partial curve, poor fit]

Question: For CCC(C)NCCCCOc1ccc(Cl)cc1C (stereo unspecified), which Potency is on record?
Answer: inconclusive [activator, single point]

Question: Which Potency does the source give for CCc1ccc(-c2nc(CN3CCC(C(=O)NCCN(CC)c4ccccc4)CC3)c(C)o2)cc1 here?
Answer: inconclusive [activator, single point]

Question: For O=C(CSc1nnc(-c2cccs2)n1-c1ccccc1)NCc1ccc2c(c1)OCO2, which Potency is on record?
Answer: inconclusive [activator, single point]

Question: With CC(=O)c1sc2nc(-c3ccc(C)cc3)c3c(c2c1N)CCCC3 as the compound, how does the Potency read?
Answer: active: 2.31 µM

Question: With Cc1ccccc1Cn1ccc(NC(=O)c2cnn3cccnc23)n1 as the compound, how does the Potency read?
Answer: inconclusive [activator, full curve, poor fit]

Question: Which Potency does the source give for COc1ccc(-c2onc(C)c2-c2ccc(C(=O)OC(C)C)o2)c(O)c1 here?
Answer: inconclusive [activator, single point]

Question: Which Potency does the source give for C[C@H](NC(=O)c1nc[nH]c1C(=O)N[C@@H](Cc1ccccc1)C(=O)OCc1ccccc1)c1ccccc1 here?
Answer: inconclusive [activator, single point]

Question: For CCN(CC)c1ccc(C(=C2C=CC(=[N+](CC)CC)C=C2)c2ccc(N(CC)CC)cc2)cc1, which Potency is on record?
Answer: inconclusive [activator, partial curve, poor fit]

Question: For O=C(CSc1ccccc1)Nc1nnc(/C=C/c2ccccc2)s1, which Potency is on record?
Answer: inconclusive [activator, single point]

Question: For CC1CCC2(CC1)NC(=O)N(NC(=O)c1cccc(N(C)C)c1)C2=O (stereo unspecified), which Potency is on record?
Answer: inactive

Question: With CC(C)NC(=O)N(O)C1N(Cc2ccc3c(c2)OCO3)C(=S)SC1(C)C (stereo unspecified) as the compound, how does the Potency read?
Answer: inactive

Question: For Cc1cc2c(OCC(O)CN3CCCC3)cccc2[nH]1 (stereo unspecified), which Potency is on record?
Answer: inactive

Question: With CC(C)OC(=O)c1ccc(NCc2cc(O)ccc2O)cc1 as the compound, how does the Potency read?
Answer: inconclusive [activator, full curve, poor fit]

Question: Which Potency does the source give for Cc1cc(S(=O)(=O)NC(C)C)ccc1OCC(=O)NCc1ccccc1 here?
Answer: inactive

Question: With C/C(=N\NC(=O)c1ccc(NS(=O)(=O)c2cccs2)cc1)c1ccc2ccccc2c1 as the compound, how does the Potency read?
Answer: inconclusive [activator, partial curve]

Question: For CCOC(=O)c1c(C)c(C(=O)Nc2ccc3c(c2)OCCO3)c(C)n1CC, which Potency is on record?
Answer: inconclusive [activator, partial curve, poor fit]

Question: For Cc1nc(Nc2ncc(C(=O)Nc3c(C)cccc3Cl)s2)cc(N2CCN(CCO)CC2)n1, which Potency is on record?
Answer: active: 18.8 µM

Question: For CC(=O)N1CCN(CC(O)COc2ccc(Br)cc2)CC1 (stereo unspecified), which Potency is on record?
Answer: inactive

Question: Which Potency does the source give for Cc1cccc(-c2nc(CSCC(=O)NCCCN3CCOCC3)c(C)o2)c1 here?
Answer: inactive

Question: Which Potency does the source give for CCN(CCO)CCCC(C)Nc1ccnc2cc(Cl)ccc12 (stereo unspecified) here?
Answer: inactive

Question: For CCN1CCN(Cc2ccc(NC(=O)c3ccc(C)c(NC(=O)c4ccc5n[nH]nc5c4)c3)cc2C(F)(F)F)CC1, which Potency is on record?
Answer: inactive
